Measurements taken from publication PMC9911399, “Two distinct binding modes provide the RNA-binding protein RbFox with extraordinary sequence specificity”.
Numbering of substitutions follows the chain as printed; changes in the protein carry UniProt numbers. The list shows a part of the results.

B1: ACCAUGG (DNA:RNA)
RNA: GGGAGACCGGAAUUCAGAUUGUCCACCAUGGUUAAAUCCCGUCGUAGCCACCA
DNA 1: CAATCTGAATTCCGGTCTCCC
DNA 2: TGGTGGCTACGACGGGATT
B2: CAUGGGA (DNA:RNA)
RNA: B1 RNA with A25C, C26A, C27U, A28G, U29G, G31A
DNA 1: CAATCTGAATTCCGGTCTCCC
DNA 2: TGGTGGCTACGACGGGATT
B3: CAUGUAU (DNA:RNA)
RNA: B1 RNA with A25C, C26A, C27U, A28G, G30A, G31U
DNA 1: CAATCTGAATTCCGGTCTCCC
DNA 2: TGGTGGCTACGACGGGATT
B4: CACAGAG (DNA:RNA)
RNA: B1 RNA with A25C, C26A, U29G, G30A
DNA 1: CAATCTGAATTCCGGTCTCCC
DNA 2: TGGTGGCTACGACGGGATT
B5: GCUACCG (DNA:RNA)
RNA: B1 RNA with A25G, C27U, U29C, G30C
DNA 1: CAATCTGAATTCCGGTCTCCC
DNA 2: TGGTGGCTACGACGGGATT
B6: AGGGAAC (DNA:RNA)
RNA: B1 RNA with C26G, C27G, A28G, U29A, G30A, G31C
DNA 1: CAATCTGAATTCCGGTCTCCC
DNA 2: TGGTGGCTACGACGGGATT
B7: CGUCCGC (DNA:RNA)
RNA: B1 RNA with A25C, C26G, C27U, A28C, U29C, G31C
DNA 1: CAATCTGAATTCCGGTCTCCC
DNA 2: TGGTGGCTACGACGGGATT
B8: UAGAUCC (DNA:RNA)
RNA: B1 RNA with A25U, C26A, C27G, G30C, G31C
DNA 1: CAATCTGAATTCCGGTCTCCC
DNA 2: TGGTGGCTACGACGGGATT
B9: CAAGAGG (DNA:RNA)
RNA: B1 RNA with A25C, C26A, C27A, A28G, U29A
DNA 1: CAATCTGAATTCCGGTCTCCC
DNA 2: TGGTGGCTACGACGGGATT
B10: CGUGAUG (DNA:RNA)
RNA: B1 RNA with A25C, C26G, C27U, A28G, U29A, G30U
DNA 1: CAATCTGAATTCCGGTCTCCC
DNA 2: TGGTGGCTACGACGGGATT
B11: GUCGUUA (DNA:RNA)
RNA: B1 RNA with A25G, C26U, A28G, G30U, G31A
DNA 1: CAATCTGAATTCCGGTCTCCC
DNA 2: TGGTGGCTACGACGGGATT
B12: CGGUCAU (DNA:RNA)
RNA: GGGAGACCGGAAUUCAGAUUGUCCCGGUCAUUUAAAUCCCGUCGUAGCCACCA
DNA 1: CAATCTGAATTCCGGTCTCCC
DNA 2: TGGTGGCTACGACGGGATT
B13: UCCAUCC (DNA:RNA)
RNA: B1 RNA with A25U, G30C, G31C
DNA 1: CAATCTGAATTCCGGTCTCCC
DNA 2: TGGTGGCTACGACGGGATT
B14: CACACCG (DNA:RNA)
RNA: B1 RNA with A25C, C26A, U29C, G30C
DNA 1: CAATCTGAATTCCGGTCTCCC
DNA 2: TGGTGGCTACGACGGGATT
B15: AUCGGGU (DNA:RNA)
RNA: B1 RNA with C26U, A28G, U29G, G31U
DNA 1: CAATCTGAATTCCGGTCTCCC
DNA 2: TGGTGGCTACGACGGGATT
B16: AUCCAGG (DNA:RNA)
RNA: B1 RNA with C26U, A28C, U29A
DNA 1: CAATCTGAATTCCGGTCTCCC
DNA 2: TGGTGGCTACGACGGGATT
B17: GAGGAAA (DNA:RNA)
RNA: B12 RNA with C25G, G26A, U28G, C29A, U31A
DNA 1: CAATCTGAATTCCGGTCTCCC
DNA 2: TGGTGGCTACGACGGGATT
B18: UAAAGUA (DNA:RNA)
RNA: B1 RNA with A25U, C26A, C27A, U29G, G30U, G31A
DNA 1: CAATCTGAATTCCGGTCTCCC
DNA 2: TGGTGGCTACGACGGGATT
B19: GCUUUGC (DNA:RNA)
RNA: B1 RNA with A25G, C27U, A28U, G31C
DNA 1: CAATCTGAATTCCGGTCTCCC
DNA 2: TGGTGGCTACGACGGGATT
B20: AAAUUUU (DNA:RNA)
RNA: B1 RNA with C26A, C27A, A28U, G30U, G31U
DNA 1: CAATCTGAATTCCGGTCTCCC
DNA 2: TGGTGGCTACGACGGGATT
B21: AUUAUUU (DNA:RNA)
RNA: B1 RNA with C26U, C27U, G30U, G31U
DNA 1: CAATCTGAATTCCGGTCTCCC
DNA 2: TGGTGGCTACGACGGGATT
B22: AGGCCAU (DNA:RNA)
RNA: B12 RNA with C25A, U28C
DNA 1: CAATCTGAATTCCGGTCTCCC
DNA 2: TGGTGGCTACGACGGGATT
B23: CUGAAGG (DNA:RNA)
RNA: B1 RNA with A25C, C26U, C27G, U29A
DNA 1: CAATCTGAATTCCGGTCTCCC
DNA 2: TGGTGGCTACGACGGGATT
B24: GGGGACC (DNA:RNA)
RNA: B12 RNA with C25G, U28G, C29A, A30C, U31C
DNA 1: CAATCTGAATTCCGGTCTCCC
DNA 2: TGGTGGCTACGACGGGATT
B25: UCGUGGG (DNA:RNA)
RNA: B1 RNA with A25U, C27G, A28U, U29G
DNA 1: CAATCTGAATTCCGGTCTCCC
DNA 2: TGGTGGCTACGACGGGATT
B26: CACGAAU (DNA:RNA)
RNA: B12 RNA with G26A, G27C, U28G, C29A
DNA 1: CAATCTGAATTCCGGTCTCCC
DNA 2: TGGTGGCTACGACGGGATT
B27: CGUCUUU (DNA:RNA)
RNA: B12 RNA with G27U, U28C, C29U, A30U
DNA 1: CAATCTGAATTCCGGTCTCCC
DNA 2: TGGTGGCTACGACGGGATT
B28: AAAAGUC (DNA:RNA)
RNA: B1 RNA with C26A, C27A, U29G, G30U, G31C
DNA 1: CAATCTGAATTCCGGTCTCCC
DNA 2: TGGTGGCTACGACGGGATT
B29: GGUAACG (DNA:RNA)
RNA: B1 RNA with A25G, C26G, C27U, U29A, G30C
DNA 1: CAATCTGAATTCCGGTCTCCC
DNA 2: TGGTGGCTACGACGGGATT
B30: CCGCUAC (DNA:RNA)
RNA: B12 RNA with G26C, U28C, C29U, U31C
DNA 1: CAATCTGAATTCCGGTCTCCC
DNA 2: TGGTGGCTACGACGGGATT
B31: CGCUACG (DNA:RNA)
RNA: B12 RNA with G27C, C29A, A30C, U31G
DNA 1: CAATCTGAATTCCGGTCTCCC
DNA 2: TGGTGGCTACGACGGGATT

What follows are binders tested against T1, RBFOX1 RRM RbFoxmut (Fox-RRM*) (Homo sapiens, UniProt Q9NWB1 109-208, R118D;E147R;N151S;E152T) (assay: EMSA; HiTS-Eq, 1 nM pool, 10 min; buffer printed only for the single-RNA assays: 10 mM Tris pH 7.5, 150 mM NaCl, 3.4 mM EDTA, 0.001% NP-40, 30 C). Conditions: tags: His6 N-terminal (pET28a); label: 5' 32P.
T1 sequence: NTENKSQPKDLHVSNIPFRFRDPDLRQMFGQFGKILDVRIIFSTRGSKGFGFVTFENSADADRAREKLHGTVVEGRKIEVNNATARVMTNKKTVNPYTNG
In short: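 Relative association constants, normalised to the cognate motif, were derived by comparing read counts of each RNA species with those of the control reaction. The RNA sequenced was the free fraction, separated by 8% native PAGE after a 10 min equilibration in 50 µL of 1 nM 5′-radiolabelled RNA (7 randomized nucleotides) with increasing concentrations of purified wild-type or mutant RbFox RRM.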

Binder	binding signal
B1	0.0839 KA relative to UGCAUGU
B2	0.0687 KA relative to UGCAUGU
B3	0.154 KA relative to UGCAUGU
B4	0.124 KA relative to UGCAUGU
B5	0.0935 KA relative to UGCAUGU
B6	0.0944 KA relative to UGCAUGU
B7	0.0851 KA relative to UGCAUGU
B8	0.0627 KA relative to UGCAUGU
B9	0.0729 KA relative to UGCAUGU
B10	0.268 KA relative to UGCAUGU
B11	0.134 KA relative to UGCAUGU
B12	0.0731 KA relative to UGCAUGU
B13	0.106 KA relative to UGCAUGU
B14	0.12 KA relative to UGCAUGU
B15	0.155 KA relative to UGCAUGU
B16	0.0808 KA relative to UGCAUGU

Binder	binding signal
B17	0.0681 KA relative to UGCAUGU
B18	0.11 KA relative to UGCAUGU
B19	0.0981 KA relative to UGCAUGU
B20	0.0977 KA relative to UGCAUGU
B21	0.13 KA relative to UGCAUGU
B22	0.0666 KA relative to UGCAUGU
B23	0.0966 KA relative to UGCAUGU
B24	0.108 KA relative to UGCAUGU
B25	0.113 KA relative to UGCAUGU
B26	0.116 KA relative to UGCAUGU
B27	0.0593 KA relative to UGCAUGU
B28	0.0411 KA relative to UGCAUGU
B29	0.11 KA relative to UGCAUGU
B30	0.129 KA relative to UGCAUGU
B31	0.0851 KA relative to UGCAUGU
